Measured values as given in PubChem BioAssay AID624417 (National Center for Advancing Translational Sciences (NCATS), 2012).
About 6,400 (1.6%) of roughly 410,000 compounds were called active. The shares of active, inactive and inconclusive entries below differ from those in the screen. Calls follow the shape of the dose curve; as a rule, active = well fitted inhibition curve with a large enough effect; inconclusive = small, poorly fitted or top-dose-only effect; inactive = no such curve, though single readings can be large or run the other way. A potency beside an inconclusive call is a rough fit, not a confirmed value.

biological target: Glucagon-like peptide 1 receptor (Homo sapiens) (UniProt P43220); experiment: qHTS of GLP-1 Receptor Inverse Agonists (Inhibition Mode); details: HEK293 GLP-1R CRE-luciferase, luminescence, 24 h, GLP-1R form is constitutively active; activity change, negative = inhibition: at 38.3 µM (top of the series) unless noted; also: nearly all actives have a fitted effect of over 55% in size
Summary of the method: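 Readout was luciferase luminescence, measured 12 min after detection reagent at room temperature. Beforehand, GLP-1R reporter HEK293 cells had sat 12 h, then received compounds for 24 hr at 37 deg C.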
% is scaled to controls: 0 for no effect and ±100 for the full control effect; potency is read from the fitted curve at half-maximal effect; tags tell the direction and shape of the fitted curve.

Sequence of UniProt P43220 (P43220 whole entry, looked up): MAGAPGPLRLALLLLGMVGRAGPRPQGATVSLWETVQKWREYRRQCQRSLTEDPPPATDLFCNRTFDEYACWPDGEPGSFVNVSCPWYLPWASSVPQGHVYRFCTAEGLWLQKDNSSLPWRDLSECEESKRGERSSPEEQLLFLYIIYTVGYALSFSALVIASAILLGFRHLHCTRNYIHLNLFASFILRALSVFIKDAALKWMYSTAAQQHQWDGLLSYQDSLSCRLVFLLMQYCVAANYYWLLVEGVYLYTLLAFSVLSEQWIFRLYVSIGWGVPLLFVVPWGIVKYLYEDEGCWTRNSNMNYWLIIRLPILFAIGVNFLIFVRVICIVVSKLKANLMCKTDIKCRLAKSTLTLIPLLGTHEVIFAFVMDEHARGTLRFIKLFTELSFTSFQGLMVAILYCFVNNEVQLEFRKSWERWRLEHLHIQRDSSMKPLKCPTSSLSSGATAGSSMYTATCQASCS

Potency, inactive:
Cc1cc(SCC(=O)O)nc2ccccc12

Potency, inconclusive:
COC(=O)CC1COc2ccccc2N1C(=O)c1ccc(C(C)(C)C)cc1 (stereo unspecified) 28.2 µM [inhibitor, single point]
COc1cccc(C2C=C(c3ccc(OC)cc3OC)Nc3nnnn32)c1 (stereo unspecified) 10 µM [inhibitor, partial curve, poor fit]
Cc1ccc(C)c(CN2C(=O)C3(c4ccccc42)N(c2cccc(C(F)(F)F)c2)C(=O)CS3(=O)=O)c1 (stereo unspecified) 10 µM [inhibitor, partial curve, poor fit]
CCOc1ccc(Cc2nnc(SCC(=O)c3ccc(OC)cc3)o2)cc1 10 µM [inhibitor, partial curve]
Nc1ccc(C=C2C=Cc3ccccc32)cc1 12.6 µM [inhibitor, single point]
CCCCN(Cc1ccco1)S(=O)(=O)c1csc(C(N)=O)c1 12.6 µM [inhibitor, single point]
O=C(Nc1ccc2ccccc2c1)c1ccc(NS(=O)(=O)c2ccc(Br)s2)cc1 14.1 µM [inhibitor, partial curve, poor fit]
O=C(NCC(c1ccco1)N1CCc2ccccc2C1)c1ccc([N+](=O)[O-])cc1 (stereo unspecified) 10 µM [inhibitor, single point]
O=C(N1CCC(n2nc(-c3ccccc3)oc2=O)CC1)C1(c2ccccc2)CC1 11.2 µM [inhibitor, single point]
Cc1ccc(C2=CSC3=NCCN23)cc1 3.55 µM [inhibitor, single point]
COc1ccc2c(c1)CCc1c(C(=O)N(C)c3ccccc3)noc1-2 20 µM [inhibitor, single point]
CN(C)c1cccc(NC(=O)c2ccc(-c3ccc(F)c(F)c3)c3ccoc23)c1 1.41 µM [inhibitor, partial curve, poor fit]
CCCN(CCC)Cc1cc(=O)oc2cc(OC)c(Cl)cc12 28.2 µM [inhibitor, single point]
CC(/C=N/NC(=O)c1cc(-c2ccc3ccccc3c2)n[nH]1)=C\c1ccco1 2.82 µM [inhibitor, partial curve, poor fit]
CSCCC(NS(=O)(=O)c1ccc(C)cc1)C(=O)N1CCN(C(c2ccccc2)c2ccccc2)CC1 (stereo unspecified) 11.2 µM [inhibitor, partial curve, poor fit]
CCc1ccc(NC(=O)c2ccc(F)c(S(=O)(=O)N(C)C3CCCCC3)c2)cc1 7.08 µM [inhibitor, partial curve, poor fit]
COc1cc(NC(=O)c2cccs2)c(OC)cc1NC(=O)CCC(=O)Nc1ccc2ncccc2c1 15.8 µM [inhibitor, single point]
CCc1ccc(NC(=O)CSc2nccn2-c2cccc(C)c2C)cc1 12.6 µM [inhibitor, partial curve, poor fit]
CC(C)(C)n1nnnc1CN1CCN2CCCC2C1 (stereo unspecified) 7.94 µM [inhibitor, partial curve, poor fit]
OCCN1CCN(C(=S)c2ccc(Cl)cc2)CC1 20 µM [inhibitor, single point]
Cc1cccc(Nc2nc(N)nc(CN3CCN(c4ccccc4F)CC3)n2)c1 15.8 µM [inhibitor, partial curve, poor fit]
CCOc1ccc(-c2nc(CSCC(=O)NC3CC3)c(C)o2)cc1 11.2 µM [inhibitor, partial curve]
O/N=C\c1cccn1-c1ccc(Br)cc1 28.2 µM [inhibitor, single point]
Cc1ccc(NC(=O)N2CCN(c3ncccc3C(F)(F)F)CC2)cc1 12.6 µM [inhibitor, partial curve, poor fit]
Cc1cc(/C([O-])=C(/C(=S)Nc2ccccc2)[n+]2ccccc2)c(C)n1-c1ccccc1 6.31 µM [inhibitor, partial curve, poor fit]
CS(=O)(=O)N(Cc1ccc(C(=O)Nc2ccccc2Sc2ccccc2)cc1)c1ccccc1 28.2 µM [inhibitor, single point]
Cc1cccc(CNC(=O)C(C)n2nc(C)c3c(C)n(-c4ccccc4)nc3c2=O)c1 (stereo unspecified) 12.6 µM [inhibitor, single point]
COc1ccccc1-c1cn[nH]c1-c1ccc(OCc2ccccc2)cc1O 10 µM [inhibitor, partial curve, poor fit]
COc1ccc(N(CC(=O)Nc2ccc(Cl)cc2)S(=O)(=O)c2c(C)n[nH]c2C)cc1 11.2 µM [inhibitor, partial curve, poor fit]
O=C(CCNC(=O)c1ccc(Cl)cc1)NCCC1=CCCCC1 31.6 µM [inhibitor, partial curve, poor fit]
C(=N\Nc1nc2ccccc2[nH]1)/c1cccc2nccnc12 4.47 µM [inhibitor, partial curve]
CCCN1C(=O)c2ccccc2NC1c1ccc(OC)cc1OC (stereo unspecified) 20 µM [inhibitor, partial curve, poor fit]
CC(C)(C)C1CCc2c(sc(NC(=O)C3CC=CCC3C(=O)O)c2C#N)C1 (stereo unspecified) 7.94 µM [inhibitor, partial curve, poor fit]
CCCCOc1ccc(C(=O)NCCc2sc(-c3cccc(F)c3)nc2C)cc1 7.08 µM [inhibitor, partial curve, poor fit]
CC(C)CC1C(=O)N(Cc2cn(CCC3OCCO3)nn2)CCS(=O)(=O)N1Cc1ccc(-c2ccc(Cl)c(Cl)c2)cc1 (stereo unspecified) 10 µM [inhibitor, partial curve, poor fit]
CN(C)CCCN1c2ccc(O)cc2Sc2ccc(Cl)cc21 5.01 µM [inhibitor, full curve, poor fit]
CCc1cccc(NC(=O)c2cnc(SC)nc2-c2ccccc2)c1 11.2 µM [inhibitor, partial curve, poor fit]
CCOC(=O)c1sc(Nc2ccccc2)nc1C 28.2 µM [inhibitor, single point]
O=c1c2ccccc2nc(/C=C/c2ccc(Cl)cc2)n1CCO 8.91 µM [inhibitor, partial curve, poor fit]
COc1ccc(/C=C/C(=O)OCC(=O)NCc2ccccc2)cc1OC 2.82 µM [inhibitor, full curve]
COc1ccccc1N1CCN(C(=O)Cc2ccc(Cl)cc2)CC1 3.98 µM [inhibitor, partial curve, poor fit]
O=C(NC(=S)N1CCN(C/C=C/c2ccccc2)CC1)c1ccc(F)cc1 12.6 µM [inhibitor, single point]
Cc1ccc2[nH]cc(C(=O)CCl)c2c1 28.2 µM [inhibitor, single point]
CN(C)C(C(=O)Nc1cc(Cl)cc(Cl)c1)c1ccccc1 (stereo unspecified) 20 µM [inhibitor, single point]
Cc1c(Cl)sn(-c2ccc(Cl)cc2)c1=O 8.91 µM [inhibitor, partial curve, poor fit]
COc1ccc(C2C=C(C34CC5CC(CC(C5)C3)C4)NC(=S)N2)cc1 (stereo unspecified) 28.2 µM [inhibitor, single point]
CCC(CC)C(=O)N(C)c1c(C)nc2c(OCc3ccc(Cl)cc3Cl)cccn12 20 µM [inhibitor, single point]
COCCn1c(SCCOc2ccccc2)nc2ccccc2c1=O 10 µM [inhibitor, single point]

Activity change, negative = inhibition, inactive:
C=C(C)C(=O)Nc1ccc2c(c1)OCCOCCOCCO2 22.3%
N=c1c(C(=O)NCc2ccco2)cc2c(=O)n3ccccc3nc2n1CCc1ccccc1 14.3%
CNC(=O)C(=O)NCC1OCCN1S(=O)(=O)c1ccc(C)cc1 (stereo unspecified) 4.19%
O=c1cc(-c2ccccc2)n(S(=O)(=O)c2ccccc2)o1 -0.0244%
O=C(N/N=C1/CCc2ccccc21)C1CC1 13.4%
Cc1ccc2c(=O)cc(C(=O)Nc3sc4c(c3C(N)=O)CCCC4)oc2c1 -8.86%
CC1CN(C(=O)N2CCC(C(=O)NCCC3=CCCCC3)CC2)c2cc(Cl)ccc2O1 (stereo unspecified) -1.25%
O=C(C1CCCN(S(=O)(=O)c2ccc(Br)s2)C1)N1CCN(c2ccc(F)cc2)CC1 (stereo unspecified) 11.3%
CCOc1ccc(Sc2cc(C(=O)NC(C)CC)c3ccccc3n2)cc1 (stereo unspecified) 14.5%
CC(C)(C)NC(=O)C1(C)CCC(=O)N1C1CCN(Cc2ccccc2)CC1 (stereo unspecified) 33.6%
c1ccc(-c2nnc(SCc3nc4ccccc4[nH]3)n2Cc2ccco2)cc1 0%
CCCS(=O)(=O)N1CCN(C(=O)COc2ccccc2)CC1 0%
COC(=O)c1ccc(NC(=O)CC2C(=O)N(c3ccc(F)cc3)C(=O)N2Cc2ccc(OC)cc2)cc1 (stereo unspecified) 8.73%
COC(=O)c1ccccc1NC(=O)NC1CC1 4.76%
CN(C)C(CNC(=O)c1ccc(Br)cc1)c1ccco1 (stereo unspecified) -27.9%
O=C1OC(c2ccccc2)=N/C1=C\N1CCCCC1 52.2%
CN(C)CCC(=O)c1ccc2c(c1)OCO2 6.01%
